In ChEMBL document CHEMBL4888484, “Replenishing the malaria drug discovery pipeline: Screening and hit evaluation of the MMV Hit Generation Library 1 (HGL1) against asexual blood stage Plasmodium falciparum ,using a nano luciferase reporter read-out” (2022):
Hit rate of the full screen: of about 150,000 compounds, about 540 (0.36%) showed an effect of 50% or more. Some of the results follow.

These compounds were tested on Plasmodium falciparum (assay: Primary screen in NF54 nanoGlo assay, in single point, at 2uM, 72h; a lower Z score goes with more inhibition). Details: timepoint 72 hour.
Format: functional, Erythrocyte

Structure (SMILES)	% Inhibition [%]	Z score
COCCC[C@H]1CCCN(C(=O)c2cnc(O)cn2)C1	-5	0.65
CN1C(=O)C(=O)N(CCS(=O)(=O)c2ccc(Cl)cc2)C1=O	-6	0.91
COc1ccc(OCCNCc2ccc(C(F)(F)F)nc2)cc1	-4	0.64
CCN(Cc1ccc(OC)cc1)Cc1cc(=O)c2c(C)ccc(C)c2[nH]1	-6	0.99
Cn1ccc2c(-c3ccnc4[nH]ncc34)ccnc21	2	-0.33
CCc1ccccc1NC(=O)Cn1cnc2nc(N3CCOCC3)sc2c1=O	-10	1.18
CCN(CC)Cc1cccc(NC(=O)c2nccnc2C(=O)NCc2ccc(F)cc2)c1	-13	1.23
CCOC1CC2(CCN(Cc3c(C)nn(C)c3OC)C2)C1 (stereo not drawn)	-9	1.43
CC(=O)N1c2cc(S(=O)(=O)NCCc3ccccc3Cl)c(Br)cc2C[C@@H]1C	-5	0.5
CCCn1ccnc1CNc1nc2c(s1)c(C)nn2C	-11	2.21
CC(=O)N(CCc1noc(C2CCC2)n1)[C@H]1CCN(C(=O)c2ccn(C)n2)C1	-21	1.81
O=C(Nc1cccc2ccccc12)[C@@H]1CCCCN1S(=O)(=O)c1ccc(Cl)s1	-8	0.93
C[C@@H](CCc1ccc(F)c(F)c1)NC(=O)c1nccnc1C(N)=O	2	-0.33
O=C(Nc1cccnc1)c1ccc2c(c1)OCO2	-14	1.61
O=C(NCc1ccnc(OC2CCCCC2)c1)NC1CCOC1C1CC1 (stereo not drawn)	-7	0.95
O=C(CCCc1ccccc1)N1CCN(c2nnc3ccc(Cl)cn23)CC1	-13	1.46
Cc1ccccc1[C@H]1CCc2nc(C(=O)NCc3ccccc3)cn2C1	11	-1.09
CCN1C[C@H](CN(C)C(=O)c2csc(-c3ccc(C)o3)n2)Oc2ccccc21	3	-0.51
Cc1cccc(C)c1OCCC(=O)NC1C2CCOC2C12CCC2 (stereo not drawn)	20	-2.52
COC(C)(C)C[C@H](C)NC(=O)NCc1ccc(Br)o1	10	-1.42
COc1ccccc1OCc1csc(NC(=O)C2CCCCC2)n1	-3	0.48
Cc1ccnc(NS(=O)(=O)c2ccc(NC(=O)c3oc4cc(C)c(Cl)cc4c3C)cc2)n1	-10	1.64
COc1c(F)cc(C(=O)NCc2cc3n(n2)CCCN(C(C)=O)C3)cc1F	-13	1.7
CCc1nc2ccccc2c(C(=O)Nc2ccc(OC)c(S(=O)(=O)N3CCCCC3)c2)c1C	-9	1.34
CNc1nc2c(c(C(=O)N3CCCC3)n1)CN(c1nnc(C)c3ccccc13)CC2	2	-0.41
Cc1cccc2[nH]c([C@@H]3CCCN3CCC(=O)NCc3ccco3)nc12	-13	1.94
CO[C@@H](C(=O)Nc1cc(-c2nccn2C)n[nH]1)c1ccccc1	2	-0.26

Structure (SMILES)	% Inhibition [%]	Z score
CCC[C@H](CC)Nc1nc(C)nc2oc(C)nc12	-10	1.5
O=C(Nc1ccc2c(c1)C(=O)N1CCC[C@H]1C(=O)N2)c1ccco1	-14	1.7
Cc1ncsc1C(=O)Nc1nccn1CC(C)C	-8	1.53
COc1ccc(N2CCN(C(=O)CCN3CCN(c4ncccn4)CC3)CC2)cc1	-4	0.6
Cc1cnc(C(=O)N(C)[C@@H](C)C2CC2)cn1	-4	0.47
c1cn(C[C@H]2CCCN2Cc2cscn2)cn1	-9	1.27
CN(C(=O)C1CC2C=CC1C2)c1ccccc1 (stereo not drawn)	-7	1.26
CCN(C[C@H](CC(C)C)NC(=O)c1cccnc1O)C(=O)c1cccnc1O	-7	1.38
CCn1ccc2ccc(CN3C[C@@H]4CC[C@H]3CN(S(=O)(=O)N(C)C)C4)cc21	6	-0.91
Cc1ccccc1C1(C(=O)Nc2cnn(C(C)C)c2)CCCC1	-14	1.54
COc1cccc([C@H]2CC(=O)Nc3ccsc32)c1OCc1ccccc1F	9	-1.26
COCCn1c(=O)n(Cc2noc(C(C)(C)C)n2)c2cc(C(=O)O)ccc21	-21	1.82
FC(F)(F)Cn1nc(C2CC2)nc1[C@H]1C[C@H]2C=C[C@@H]1C2	-7	1.24
COCC1(C)CN(C(=O)NCCC2(O)CCCOC2)CCO1 (stereo not drawn)	-3	0.63
CC(=O)c1ccc(OC2(C(=O)O)CCN(C3CCCCCC3)CC2)cc1F	-4	0.72
CCn1nc(C)cc1C(=O)Nc1ccc(Cn2ccnc2C)cc1	-10	1.94
Cc1cc(Br)oc1C(=O)N1CCOC2CCCC21 (stereo not drawn)	0	-0.03
CC1(C)COc2ccc(C(=O)N3CC[C@H](O)C3(C)C)cc21	19	-2.22
O=C(c1cc(O)ccn1)N1CC[C@@](F)(c2ccccc2F)C1	2	-0.27
O=C(Nc1ccc(Cl)c(Cl)c1)N1C[C@@H](O)[C@@H](O)C1	-9	1.25
CN(C)CCn1c(=O)c(CN2CCN(c3ccccn3)CC2)cc2ccc(F)cc21	6	-1.16
Cc1nc(CNC(=O)CC(C)(C)CC(=O)c2ccccc2)c(C)s1	-4	0.55
CC(C)(N)c1cc(Cl)cc(Cl)c1	-2	0.24
Cn1ccc(C(=O)N2CCC[C@H](c3c[nH]c4ncccc34)C2)n1	7	-1.12
CCCC1CCC(CN2C[C@H](C(=O)O)[C@@H](c3cncn3C)C2)CC1 (stereo partly drawn)	3	-0.65
O=C1CC[C@@H](C(=O)Nc2ccccc2OCC2CC2)N1	-5	1.01
Cc1n[nH]cc1CN(C)C(=O)c1cncc(F)c1	-5	0.81
